# Assay results reported in patent publication US20240181006A1 (Merck KGaA, published 2024).
# T1: recombinant human Brevican (human, UniProt Q96GW7 23-911, limits assumed)
# T1 sequence (looked up): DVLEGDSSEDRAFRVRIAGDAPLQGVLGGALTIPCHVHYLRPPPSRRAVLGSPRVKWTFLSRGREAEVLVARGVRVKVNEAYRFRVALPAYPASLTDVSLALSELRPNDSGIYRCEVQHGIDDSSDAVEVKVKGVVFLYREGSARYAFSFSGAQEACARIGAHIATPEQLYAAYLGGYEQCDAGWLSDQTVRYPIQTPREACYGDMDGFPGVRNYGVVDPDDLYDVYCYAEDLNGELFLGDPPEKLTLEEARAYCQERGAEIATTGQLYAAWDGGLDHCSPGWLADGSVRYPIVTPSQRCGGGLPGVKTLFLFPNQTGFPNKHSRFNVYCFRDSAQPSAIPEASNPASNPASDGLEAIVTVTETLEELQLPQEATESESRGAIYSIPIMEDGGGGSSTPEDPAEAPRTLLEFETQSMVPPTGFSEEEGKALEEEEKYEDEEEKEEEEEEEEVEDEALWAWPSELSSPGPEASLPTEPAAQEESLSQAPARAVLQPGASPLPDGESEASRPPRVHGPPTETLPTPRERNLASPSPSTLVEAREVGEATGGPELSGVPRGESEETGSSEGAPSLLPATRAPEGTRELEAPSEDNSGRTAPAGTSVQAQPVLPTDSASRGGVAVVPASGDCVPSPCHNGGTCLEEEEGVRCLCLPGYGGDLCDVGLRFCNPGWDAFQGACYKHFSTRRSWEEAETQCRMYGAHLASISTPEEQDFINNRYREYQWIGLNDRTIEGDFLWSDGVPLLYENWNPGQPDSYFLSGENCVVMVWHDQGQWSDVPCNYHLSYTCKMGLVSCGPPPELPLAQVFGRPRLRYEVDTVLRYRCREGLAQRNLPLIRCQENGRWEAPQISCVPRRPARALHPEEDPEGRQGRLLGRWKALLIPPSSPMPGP
# B1: construct 54, 114F08-ALB26 (other)
# chain: EVQLVESGGGLVQAGGSLRLSCAASGSTFIINVVRWYRRTPGKQRELVATISSGGNANYVDSVRGRFSISRDGAKNAVDLQMNGLKPEDTAVYYCNVPTTHYGGVYYGPYWGQGTLVTVSSGGGGSGGGGSGGGGSGGGGSGGGGSGGGGSGGGGS[… about 120 residues …]
# notes: also called 054
# B2: construct 118, ALB26-114F08-114F08 (other)
# chain: [… about 120 residues …]GGGGSGGGGSGGGGSGGGGSGGGGSGGGGSGGGGSEVQLVESGGGLVQAGGSLRLSCAASGSTFIINVVRWYRRTPGKQRELVATISSGGNANYVDSVRGRFSISRDGAKNAVDLQMNGLKPEDTAVYYCNVPTTHYGGVYYGPYWGQGTLVTVSSGGGGSGGGGSGGGGSGGGGSGGGGSGGGGSGGGGSEVQLVESGGGLVQAGGSLRLSCAASGSTFIINVVRWYRRTPGKQRELVATISSGGNANYVDSVRGRFSISRDGAKNAVDLQMNGLKPEDTAVYYCNVPTTHYGGVYYGPYWGQGTLVTVSS
# notes: also called Alb-114F08-114F08
# Columns and labels:
# [1] = target: recombinant human Neurocan (human, UniProt O14594 23-1321, limits assumed); assay: ELISA on recombinant human Neurocan
# [2] = target: T2, recombinant cynomolgus Aggrecan G1-IGD-G2 (cynomolgus); assay: ELISA on recombinant Aggrecan G1-IGD-G2
# T2 construct: domain: G1-IGD-G2; also called Cy G1-IGD-G2
# [3] = target: T3, recombinant bovine Aggrecan G1-IGD-G2 (bovine, UniProt P13608 20-684, limits assumed); assay: ELISA on recombinant Aggrecan G1-IGD-G2
# T3 construct: domain: G1-IGD-G2; also called Bov G1-IGD-G2
# [4] = target: T4, recombinant rat Aggrecan G1-IGD-G2 (rat, UniProt P07897 20-684, limits assumed); assay: ELISA on recombinant Aggrecan G1-IGD-G2
# T4 construct: domain: G1-IGD-G2; also called Rat G1-IGD-G2
# [5] = target: T5, recombinant human Aggrecan G1-IGD-G2 (human, UniProt P16112 in part); assay: ELISA on recombinant Aggrecan G1-IGD-G2
# T5 construct: also called Hu G1-IGD-G2
# [6] = target: T6, recombinant dog Aggrecan G1-IGD-G2 (dog, UniProt Q28343 20-693, limits assumed); assay: ELISA on recombinant Aggrecan G1-IGD-G2
# T6 construct: domain: G1-IGD-G2; also called Dog G1-IGD-G2
# [7] = target: T1, recombinant human Brevican; assay: ELISA on recombinant human Brevican
Binder,binding result [1],EC50 [2] [nM],EC50 [3] [nM],EC50 [4] [nM],EC50 [5] [nM],EC50 [6] [nM],binding result [7]
B1,no binding,4.4,5.6,7.6,6,3,no binding
B2,no binding,0.076,0.37,0.19,0.11,0.24,no binding
